Measured values from the supplement of paper PMC4967469.

Key:
Experiment in all cases: Viability of human cancer cell lines after 72 h of drug (GDSC screen)
AZD6244 = compound: Cn1cnc2c(F)c(Nc3ccc(Br)cc3Cl)c(C(=O)NOCCO)cc21 [AZD6244]; conditions: top dose 4 µM; screen: GDSC drug entry 1498; top dose inferred
Protocol: (§1)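 Human cancer cell lines in 384-well plates, medium with 10% serum, drug for 72 h over a 256-fold dose range (nine 2-fold or five 4-fold steps up to the top dose). Adherent lines were fixed and stained with the nucleic acid dye Syto60, suspension lines read with resazurin; signal relative to control wells, capped at 0 and 100%. One two-parameter sigmoid per drug and line, fitted in a mixed model over all curves with the slope shared within a line.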

AS601245 = compound: N#CC(c1ccnc(NCCc2cccnc2)n1)c1nc2ccccc2s1 [AS601245]; conditions: top dose 8 µM; top dose inferred
Protocol: as §1

EX-527 = compound: NC(=O)C1CCCc2c1[nH]c1ccc(Cl)cc21 [EX-527]; conditions: top dose 20 µM
Protocol: as §1

YM201636 = compound: Nc1ccc(C(=O)Nc2cccc(-c3nc(N4CCOCC4)c4oc5ncccc5c4n3)c2)cn1 [YM201636]; conditions: top dose 5.12 µM; top dose inferred
Protocol: as §1

Cell Line | AUC (AZD6244) | IC50 (AZD6244) [µM] | AUC (AS601245) | IC50 (AS601245) [µM] | AUC (EX-527) | IC50 (EX-527) [µM] | AUC (YM201636) | IC50 (YM201636) [µM]
22RV1 (prostate, adherent) | 0.963 | > 4 | 0.916 | > 8 | 0.982 | > 20 | 0.814 | 3.69
42-MG-BA (glioma, adherent) | 0.93 | > 4 | 0.893 | > 8 | 0.985 | > 20 | 0.934 | > 5.12
451Lu (melanoma, adherent) | 0.355 | 0.101 | 0.831 | 4.76 | 0.986 | > 20 | 0.948 | > 5.12
639-V (bladder, adherent) | 0.982 | > 4 | 0.797 | 3.14 | 0.984 | > 20 | 0.975 | > 5.12
647-V (bladder, adherent) | 0.888 | > 4 | 0.879 | > 8 | 0.979 | > 20 | 0.964 | > 5.12
769-P (kidney, adherent) | 0.868 | > 4 | 0.809 | 4.64 | 0.981 | > 20 | 0.855 | 4.69
786-0 (kidney, adherent) | 0.885 | 3.76 | 0.754 | 2.5 | 0.98 | > 20 | 0.822 | 2.69
5637 (bladder, adherent) | 0.975 | > 4 | 0.868 | 6.16 | 0.989 | > 20 | 0.91 | > 5.12
8305C (thyroid, adherent) | 0.704 | 1.13 | 0.805 | 5.64 | 0.982 | > 20 | 0.93 | > 5.12
8505C (thyroid, adherent) | 0.767 | 1.57 | 0.725 | 2.28 | 0.956 | > 20 | 0.886 | > 5.12
23132-87 (stomach, adherent) | 0.891 | > 4 | 0.854 | 6.65 | 0.986 | > 20 | 0.808 | 2.77
A172 (glioma, adherent) | 0.944 | > 4 | 0.74 | 2.35 | 0.988 | > 20 | 0.922 | > 5.12
A204 (rhabdomyosarcoma, adherent) | 0.949 | > 4 | 0.785 | 4.53 | 0.974 | > 20 | 0.839 | 5.11
A427 (non-small cell lung carcinoma, adherent) | 0.895 | > 4 | 0.859 | 6.76 | 0.971 | > 20 | 0.931 | > 5.12
A431 (skin, adherent) | 0.971 | > 4 | 0.812 | 4.07 | 0.977 | > 20 | 0.908 | > 5.12

The IC50 comes from the fitted curve, where viability falls to half of the control; where the fit passes the top or lowest dose, that dose stands as a limit. The AUC spans the tested range (256-fold, ending at the top dose) of the same fit; it is 1 without any effect and falls as sensitivity rises. For part of these data: An inferred top dose is not printed in the source and was worked back from the curve model. For part of these data: Where an entry number is given, a second screen of the drug exists; the two often differ.
